Reference: patent publication US10167295B2 (priority 2013, dated 2019)

Assays:
[1] = target: T1, σ1 receptor (Homo sapiens, UniProt Q99720); assay: biochemical; settings: read-out: Inhibition (%) Sigma1 (σ1)
[2] = target: T1, σ1 receptor; settings: 10 μM
[3] = tested on: Sprague-Dawley rats; settings: male rats, antagonist without agonist-antagonist, hydrochloride

T1 sequence (Q99720 whole entry, species assumed): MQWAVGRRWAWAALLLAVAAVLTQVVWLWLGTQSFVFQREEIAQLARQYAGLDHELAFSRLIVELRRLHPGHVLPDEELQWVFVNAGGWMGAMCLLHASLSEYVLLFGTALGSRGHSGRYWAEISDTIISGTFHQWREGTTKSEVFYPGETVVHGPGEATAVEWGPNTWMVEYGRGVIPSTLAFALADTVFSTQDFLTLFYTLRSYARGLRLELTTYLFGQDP

SMILES	inhibition at 10 µM [1]	binding to the σ1 receptor (in words) [2]	effect on nociceptive threshold when administered alone / with saline [3]	effect on nociceptive threshold when administered alone / with saline ([3]; listed as naloxone)
Oc1ccc2c3c1O[C@H]1[C@@H](O)CC[C@@]4(O)[C@@H](C2)N(CC2CCC2)CC[C@]314 [Nalbuphine, Nalbuphine hydrochloride]	-2%	does not bind to the σ1 receptor		
C=CCN1CC[C@]23c4c5ccc(O)c4O[C@H]2C(=O)CC[C@@]3(O)[C@H]1C5 [Naloxone, naloxone hydrochloride]	9%		did not affect nociceptive threshold	did not have an effect on nociceptive threshold
CC(C)=CCN1CCC2(C)c3cc(O)ccc3CC1C2C.CC(O)C(=O)O (stereo not drawn) [Pentazocine, Pentazocine lactate]	93%			

Counter-ions that a name gives are not always drawn. Like-named read-outs stand apart in the source and are kept apart here.
